# According to US20260132196A1 (Amgen, published 2026):
# T1: HUMAN CLDN-6 (UniProt P56747) (human, UniProt P56747 1-220)
# T1 sequence: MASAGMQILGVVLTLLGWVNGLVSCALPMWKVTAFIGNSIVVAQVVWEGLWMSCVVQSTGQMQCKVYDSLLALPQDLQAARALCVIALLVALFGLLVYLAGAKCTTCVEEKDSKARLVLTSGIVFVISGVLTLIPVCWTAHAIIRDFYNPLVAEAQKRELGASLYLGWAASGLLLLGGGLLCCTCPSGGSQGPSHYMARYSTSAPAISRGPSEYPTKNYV
# B1: S3N/HLE BITE I2E (SEQ ID NO: 77) (bispecific antibody)
# chain: QVQLVQSGAEVKKPGASVKVSCKASGYTFTGYYVHWVRQAPGQCLEWMGWINPNSGATNYAQKFQGRVTMTRDTSISTAYMELSRLRSVDTAVYYCVRDALIVEAPATRDYYYYGMDVWGQGTTVTVSSGGGGSGGGGSGGGGSEIVLTQSPGTLSLSPGERATLSCRASQSVRSTYLAWYQQKPGQAPRLLISGASSRATGIPDRFSGSGSGTDFTLTISRLEPEDFAVYYCQQYQTSPITFGCGTRLEIKSGGGGSEVQLVESGGGLVQPGGSLKLSCAASGFTFNKYAINWVRQAPGKGLEWVARIRSKYNNYATYYADAVKDRFTISRDDSKNTVYLQMNNLKTEDTAVYYCARAGNFGSSYISYWAYWGQGTLVTVSSGGGGSGGGGSGGGGSQTVVTQEPSLTVSPGGTVTIT[sequence of about 80 residues not given]FGSGTKLTVLGGGG[sequence of human IgG1 Fc with R292C N297G V302C (EU numbers) not given]GGGGSGGGGSGGGGSGGGGSGGGGSGGGGS[sequence of human IgG1 Fc with R292C N297G V302C (EU numbers) not given]
# B2: L4B/HLE BITE I2E (SEQ ID NO: 49) (bispecific antibody)
# chain: QVQLVQSGAEVKKPGASVKVSCKASGYTFTGYYVHWVRQAPGQCLEWMGWINPNSGATNYAQKFQGRVTMTRDTSISTAYMELSRLRSDDTAVYYCVRDRLIVEAPATRDYYYYGMDVWGQGTTVTVSSGGGGSGGGGSGGGGSEIVLTQSPGTLSLSPGERATLSCRASQSVRSTYLAWYQQKPGQAPRLLIYGASSRATGIPDRFSGSGSGTDFTLTISRLEPEDFAVYYCQQYDASPITFGCGTRLEIKSGGGGSEVQLVESGGGLVQPGGSLKLSCAASGFTFNKYAINWVRQAPGKGLEWVARIRSKYNNYATYYADAVKDRFTISRDDSKNTVYLQMNNLKTEDTAVYYCARAGNFGSSYISYWAYWGQGTLVTVSSGGGGSGGGGSGGGGSQTVVTQEPSLTVSPGGTVTIT[sequence of about 80 residues not given]FGSGTKLTVLGGGG[sequence of human IgG1 Fc with R292C N297G V302C (EU numbers) not given]GGGGSGGGGSGGGGSGGGGSGGGGSGGGGS[sequence of human IgG1 Fc with R292C N297G V302C (EU numbers) not given]
# B3: X3S/HLE BITE I2E (SEQ ID NO: 35) (bispecific antibody)
# chain: QVQLVQSGAEVKKPGASVKVSCKASGYTFTGYYVHWVRQAPGQCLEWMGWINPNSGATNYAQKFQGRVTMTRDTSISTAYMELSRLRSDDTAVYYCVRDALIVEAPATRDYYYYGMDVWGQGTTVTVSSGGGGSGGGGSGGGGSEIVLTQSPGTLSLSPGERATLSCRASQSVRSTYLAWYQQKPGQAPRLLIYGASSRATGIPDRFSGSGSGTDFTLTISRLEPEDFAVYYCQQYDASPITFGCGTRLEIKSGGGGSEVQLVESGGGLVQPGGSLKLSCAASGFTFNKYAINWVRQAPGKGLEWVARIRSKYNNYATYYADAVKDRFTISRDDSKNTVYLQMNNLKTEDTAVYYCARAGNFGSSYISYWAYWGQGTLVTVSSGGGGSGGGGSGGGGSQTVVTQEPSLTVSPGGTVTIT[sequence of about 80 residues not given]FGSGTKLTVLGGGG[sequence of human IgG1 Fc with R292C N297G V302C (EU numbers) not given]GGGGSGGGGSGGGGSGGGGSGGGGSGGGGS[sequence of human IgG1 Fc with R292C N297G V302C (EU numbers) not given]
# Molecular target: T1, HUMAN CLDN-6 (UniProt P56747)
# Test: cell-based or functional assay
Binder,"TDCC EC50, OAW28 cells [nM]","TDCC EC50, OVCAR-3 cells [nM]","TDCC EC50, PA-1 cells [nM]","TDCC EC50, LCLC97TM1 cells [nM]","TDCC EC50, NCI-H1435 cells [nM]"
B1,0.0352,0.0257,0.0031,,
B2,0.0446,0.0194,0.0034,0.0107,0.0116
B3,0.0301,0.0191,0.0028,0.0056,0.0059
